Results reported in PubChem BioAssay (NCATS).
The shares of active, inactive and inconclusive entries below differ from those in the screen. Potencies of inconclusive entries are left out as doubtful fits. Activity calls are given as the source filed them. Unless noted, calls come from the whole dose curve; as a rule, active = well fitted curve in the direction sought with a large enough effect; inconclusive = small, poorly fitted or top-dose-only effect, or another doubt; inactive = no such curve, though single readings can be large; an effect the other way counts as inactive or inconclusive.

How the values were obtained:
[1] = target: Phospholipid hydroperoxide glutathione peroxidase GPX4 (Homo sapiens) (UniProt P36969); test: Primary qHTS Assay for Inhibitors of Recombinant Selenoprotein Glutathione Peroxidase 4 (GPX4) (AID 1845192); note: nearly all actives have a fitted effect of over 65% in size
In short: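 qHTS, GR-coupled: GPX4 200 nM + cpd 30 min RT → GSH 1 mM, NADPH 0.5 mM, GR 100 nM → CHP 0.5 mM start; fluor 340/450 at t0 and t15 min; no-enzyme wells as control.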

[2] = tested on: Es-2; test: Primary qHTS to identify gynecologic anti-cancer compounds using libraries of approved drugs and bioactive compounds (AID 1345084); details: Gynecologic cancer cell panel viability, ATPlite luminescence, 48 h; series mostly up to 57.5 µM; note: nearly all actives have a fitted effect of over 55% in size
In short: (§1)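 ATP-based viability (ATPlite), 1,000 cells/well, 16 h pre-incubation, 48 h compound at 37 C, 5% CO2, 15 min RT before read.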

[3] = tested on: JEG-3; test: as above; details: Gynecologic cancer cell panel viability, ATPlite luminescence, 48 h; series mostly up to 57.5 µM
In short: as §1

[4] = target: Calcium and integrin-binding protein 1 (Homo sapiens) (UniProt Q99828); test: Primary qHTS for Identification of Calcium Integrin Binding Protein 1 (CIB1) Competitor (AID 1508620)
In short: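 Fluorescence polarization competition: CIB1-GST (1 uM final) preincubated with compound 15 min at room temperature, then FITC-labeled alphaIIb peptide (100 nM final) added for another 15 min. Polarization read at Ex 480/Em 540.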

[5] = target: Glutathione peroxidase 1 (Homo sapiens) (UniProt P07203); test: Primary qHTS Assay for Inhibitors of Recombinant Selenoprotein Glutathione Peroxidase 1 (GPX1) (AID 1845191); details: activity, negative = inhibition: at 48.8 µM (top of the series); note: nearly all actives have a fitted effect of over 65% in size
In short: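 GPX1 10 nM, GR 100 nM, GSH 1 mM, NADPH 0.5 mM, CHP 0.5 mM (final). 30-min cpd preincubation, RT. Ex340/Em450 read t=0, t=15 min.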

[6] = Primary redox qHTS assay for identification of artifact compounds. (AID 1845223)
In short: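 Redox-cycling detection via DTT (250 uM final) oxidation coupled to Amplex Red (25 uM)/HRP (250 mU/mL) in HBSS. 15 min preincubation plus 30 min after DTT, room temperature. Ex/Em 525/598 nm; 4-parameter Hill fit against DMSO and 10 uM DA3003.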

[7] = target: Cytochrome P450 2C9 (Homo sapiens) (UniProt P11712); test: Cytochrome P450 family 2 subfamily C member 9 (CYP2C9) small molecule antagonists: luciferase biochemical (cell-free) qHTS assay (AID 1645842; active = well fitted curve in the direction sought with a large enough effect in the repeat runs; inconclusive = weak or mixed curves; inactive = no such curve, though single readings can be large; an effect the other way counts as inactive or inconclusive; note: nearly all actives have a fitted effect of over 55% in size)
In short: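 P450-Glo CYP2C9 system: proluciferin substrate with enzyme in mix containing 0.4% BSA, 10 min at room temperature, then NADPH regeneration solution added and incubated 1 h at 37C. Detection reagent stopped reaction; luminescence read after 20 min as RLU.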

[8] = qHTS of pediatric cancer cell lines to identify multiple opportunities for drug repurposing: Primary screen for SJ-GBM2 cells (AID 1347091)
In short: (§2)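 Eight- or eleven-point concentration series, 48 h treatment at 37 degrees C in growth media; readout CellTiter-Glo luminescence. Potency and efficacy were taken from the concentration-response curves.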

[9] = qHTS of pediatric cancer cell lines to identify multiple opportunities for drug repurposing: Primary screen for SK-N-MC cells (AID 1347093); details: SK-N-MC viability, CellTiter-Glo luminescence, 48 h; activity change, negative = cytotoxic: at 46 µM (top of the series)
In short: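 Metabolically active cells were quantified by ATP-dependent luminescence (CellTiter-Glo, 15 min at room temperature) following 48 h treatment. Cells had been plated at 500-1,000 per well and settled for 5 h beforehand.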

[10] = qHTS of pediatric cancer cell lines to identify multiple opportunities for drug repurposing: Primary screen for BT-12 cells (AID 1347101); note: nearly all actives have a fitted effect of over 25% in size
In short: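 Cells (500-1,000/well) rested 5 h, then received compounds for 48 h; metabolically active cells were measured by CellTiter-Glo luminescence. Final concentrations spanned up to 46 µM (MIPE, 11-point) or 0.59 nM-46 µM (NPC, 8-point) in primary screens, 11-point in follow-ups.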

[11] = qHTS of pediatric cancer cell lines to identify multiple opportunities for drug repurposing: Primary screen for Rh41 cells (AID 1347108); note: nearly all actives have a fitted effect of over 70% in size;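 for activity change, negative = cytotoxic: luminescence drop marks cytotoxic hits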
In short: (§3)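 500-1,000 cells/well; 5 h pre-incubation 37 °C/5% CO2; compound pinned; 48 h; CellTiter-Glo, 15 min RT; luminescence. MIPE 11-pt from 0.78 nM, NPC 8-pt from 0.59 nM final. Bortezomib 2.3 µM final as positive control.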

[12] = tested on: GB4; test: qHTS profiling for inhibitors of Plasmodium falciparum proliferation (AID 504749); note: nearly all actives have a fitted effect of over 60% in size; details: P. falciparum in erythrocytes, SYBR Green DNA, 72 h; series mostly up to 28.7 µM
In short: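 Quantitative HTS: compounds pinned into medium, infected erythrocytes added (0.3% parasitemia, 2.5% hematocrit), 72 h culture at 37 C under 5% CO2. Saponin/Triton lysis with SYBR Green I, overnight RT, then fluorescence read.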

[13] = qHTS of pediatric cancer cell lines to identify multiple opportunities for drug repurposing: Primary screen for DAOY cells (AID 1347090); details: DAOY medulloblastoma viability, CellTiter-Glo luminescence, 48 h; activity change, negative = cytotoxic: at 46 µM (top of the series); note: nearly all actives have a fitted effect of over 55% in size
In short: as §2

[14] = qHTS of pediatric cancer cell lines to identify multiple opportunities for drug repurposing: Primary screen for NB-EBc1 cells (AID 1347095)
In short: as §3
Potency is the fitted concentration of half-maximal effect; tags give direction and shape of the fitted curve.

UniProt P36969, sequence (P36969 whole entry, looked up): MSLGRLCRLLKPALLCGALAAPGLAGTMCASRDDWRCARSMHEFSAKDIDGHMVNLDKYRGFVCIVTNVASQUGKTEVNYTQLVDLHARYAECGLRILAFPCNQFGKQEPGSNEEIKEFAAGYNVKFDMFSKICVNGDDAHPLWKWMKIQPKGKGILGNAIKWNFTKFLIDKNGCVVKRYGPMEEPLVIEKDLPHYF
UniProt P11712, sequence (P11712 whole entry, looked up): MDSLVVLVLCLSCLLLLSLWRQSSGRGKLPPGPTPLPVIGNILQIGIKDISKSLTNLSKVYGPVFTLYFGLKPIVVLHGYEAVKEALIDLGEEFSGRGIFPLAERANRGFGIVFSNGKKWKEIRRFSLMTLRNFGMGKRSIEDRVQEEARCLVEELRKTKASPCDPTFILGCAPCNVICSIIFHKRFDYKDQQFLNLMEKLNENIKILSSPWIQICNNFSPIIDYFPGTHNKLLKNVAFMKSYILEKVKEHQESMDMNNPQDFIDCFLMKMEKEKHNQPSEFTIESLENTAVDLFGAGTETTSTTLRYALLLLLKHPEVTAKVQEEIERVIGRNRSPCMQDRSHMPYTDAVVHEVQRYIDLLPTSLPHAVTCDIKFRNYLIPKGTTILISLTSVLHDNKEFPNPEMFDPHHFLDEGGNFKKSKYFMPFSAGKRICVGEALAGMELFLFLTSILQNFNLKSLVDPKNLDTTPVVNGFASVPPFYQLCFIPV
UniProt Q99828, sequence (Q99828 whole entry, looked up): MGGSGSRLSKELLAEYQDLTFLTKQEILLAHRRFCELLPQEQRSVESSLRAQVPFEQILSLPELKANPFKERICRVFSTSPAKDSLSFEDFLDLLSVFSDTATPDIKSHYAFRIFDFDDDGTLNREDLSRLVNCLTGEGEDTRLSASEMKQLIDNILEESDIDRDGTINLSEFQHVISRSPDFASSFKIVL
UniProt P07203, sequence (P07203 whole entry, looked up): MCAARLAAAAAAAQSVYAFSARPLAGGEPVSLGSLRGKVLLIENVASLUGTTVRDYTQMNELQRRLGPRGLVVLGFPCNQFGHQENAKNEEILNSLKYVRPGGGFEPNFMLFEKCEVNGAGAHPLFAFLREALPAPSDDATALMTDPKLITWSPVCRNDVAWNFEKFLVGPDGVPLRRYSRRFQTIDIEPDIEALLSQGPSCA

CN(C)C1CCN(C(=O)c2ccc(NC(=O)Nc3ccc(-c4nc(N5CCOCC5)nc(N5CCOCC5)n4)cc3)cc2)CC1
Potency [1]: inactive
Potency [2]: inconclusive [cytotoxic, full curve, poor fit]
Potency [3]: inconclusive [cytotoxic, full curve, poor fit]

CC(C)=CCC[C@](C)(O[C@@H]1O[C@H](CO)[C@@H](O)[C@H](O)[C@H]1O)[C@H]1CC[C@]2(C)[C@@H]1[C@H](O)CC1[C@@]3(C)CC[C@H](O)C(C)(C)C3[C@@H](O[C@@H]3O[C@H](CO)[C@@H](O)[C@H](O)[C@H]3O[C@@H]3OC[C@@H](O)[C@H](O)[C@H]3O)C[C@]12C (stereo partly specified)
Potency [1]: inactive

N#Cc1ccc(Nc2nc(-c3ccc(O)cc3O)cs2)cc1C(F)(F)F
Potency [4]: inconclusive [inhibitor, partial curve]
Potency [5]: inconclusive [inhibitor, single point]
Potency [6]: inconclusive [activator, full curve]
Potency [2]: active: 14.1 µM
Potency [3]: inconclusive [cytotoxic, partial curve, poor fit]

Fc1ccc2[nH]c(CN3CCN(c4ccccn4)CC3)cc2c1
Potency [7]: active: 6.74 µM

c1cc(CN2CCCCC2)cc(OCCCNc2nc3ccccc3s2)c1
Potency [8]: inconclusive [cytotoxic, single point]
Potency [9]: inconclusive [cytotoxic, single point]
Potency [10]: inconclusive [cytotoxic, partial curve]
Potency [11]: inconclusive [cytotoxic, partial curve, poor fit]
Potency [12]: inconclusive [inhibitor, partial curve, poor fit]

C[C@](Cc1c[nH]c2ccccc12)(NC(=O)OC1C2CC3CC(C2)CC1C3)C(=O)NC[C@H](NC(=O)CCC(=O)O)c1ccccc1 (stereo partly specified)
Potency [10]: inconclusive [cytotoxic, partial curve, poor fit]
Potency [11]: inactive
Potency [1]: inconclusive [inhibitor, single point]

O=C1NC(=O)[C@@H](c2cn3c4c(cccc24)CCC3)[C@H]1c1c[nH]c2ccccc12
Potency [13]: inconclusive [cytotoxic, full curve]
Potency [8]: active: 0.0833 µM
Potency [10]: active: 2.17 µM
Potency [11]: inconclusive [cytotoxic, full curve, poor fit]

Cc1cc(OCCOCC[N+](C)(C)Cc2ccccc2)ccc1C(C)(C)CC(C)(C)C
Potency [13]: inconclusive [cytotoxic, single point]
Potency [9]: inconclusive [cytotoxic, full curve, poor fit]
Potency [14]: inconclusive [cytotoxic, single point]
Potency [10]: active: 6.17 µM
Potency [11]: inconclusive [cytotoxic, single point]
Potency [7]: inconclusive [inhibitor, single point]

Cn1ncnc1[C@@H]1c2n[nH]c(=O)c3cc(F)cc(c23)N[C@H]1c1ccc(F)cc1
Potency [1]: inconclusive [inhibitor, single point]

CC1(NC(=O)c2ccc(C#Cc3cccc(F)c3)cn2)COC1
Potency [7]: inconclusive [inhibitor, single point]
Potency [5]: inconclusive [inhibitor, partial curve]

OC[C@H]1O[C@@H](Oc2ccc(O)c3cccc(O)c23)[C@H](O)[C@@H](O)[C@@H]1O
Potency [4]: inconclusive [inhibitor, partial curve]
Potency [6]: inconclusive [activator, partial curve]

COc1cc(NC(=O)c2cccc(-n3cc(NC(=O)Nc4cccc(C)c4)cn3)c2)cc(OC)c1OC
Potency [6]: inactive
Potency [2]: inconclusive [cytotoxic, single point]
Potency [3]: inconclusive [rising, single point]
